Measured values taken from PubChem BioAssay AID504832 (National Center for Advancing Translational Sciences (NCATS), 2011).
Hit rate of the full screen: of about 310,000 compounds, about 18,000 (5.8%) were called active. The inconclusive results got no clear call from the source; some entries with a clear call stand among them for comparison. Calls follow the shape of the dose curve; as a rule, active = well fitted inhibition curve with a large enough effect; inconclusive = small, poorly fitted or top-dose-only effect, or another doubt; inactive = no such curve, though single readings can be large or run the other way. No potency is given beside an inconclusive call; the fits are too rough.
% is scaled to controls: 0 for no effect and ±100 for the full control effect; potency is read from the fitted curve at half-maximal effect; tags tell the direction and shape of the fitted curve.

Assay: Primary qHTS for delayed death inhibitors of the malarial parasite plastid, 48 hour incubation
Details: P. falciparum luciferase growth in erythrocytes; series mostly up to 28.7 µM; activity change, negative = inhibition: at the top concentration
Procedure, shortened: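 Growth was read as firefly luciferase luminescence after a 48 h, 37 C, 5% CO2 exposure of compounds to reporter-bearing P. falciparum cultures (0.1% parasitemia, 2% hematocrit final) in Albumax-supplemented RPMI 1640.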
For `COc1ccc(CCNC(=O)c2cccc(S(=O)(=O)N3CCOCC3)c2)cc1OC`, the Potency was inconclusive [inhibitor, single point].
With `O=[N+]([O-])c1cc([N+](=O)[O-])c(Oc2cncc(Cl)c2)cc1NC1CCCCCCC1` the Potency was inconclusive [inhibitor, partial curve].
In the case of `Cc1nc2ccc(S(=O)(=O)c3ccc4nc(C)[nH]c4c3)cc2[nH]1`, the “activity change, negative = inhibition” value is reported as inactive: 13.3%.
With `COc1ccc(C(O)(C2CCCCC2)C(CN2CCOCC2)c2ccccc2)cc1` (stereo not drawn) the Potency was inconclusive [inhibitor, full curve].
For `COc1ccc(C2NC(=O)NC(c3ccccc3)=C2c2nc3ccccc3s2)cc1` (stereo not drawn), the Potency was inconclusive [inhibitor, single point].
In the case of `CC(=O)c1cc2c(ccc3ccccc32)oc1=O`, the “activity change, negative = inhibition” value is reported as inactive: 9.71%.
With `Nc1ncc(-c2ccccc2)c(-c2ccc(OCc3ccccc3)cc2O)n1` the Potency was active: 11.7 µM.
With `CCOC(=O)c1sc(-c2ccc(C(F)(F)F)cc2)nc1O` the Potency was inconclusive [inhibitor, full curve, poor fit].
With `O=C(N/N=C/c1ccccc1O)C1SCCCS1` the Potency was inconclusive [inhibitor, single point].
With `O=C(Nc1ccncc1)Nc1ccc(F)cc1F` the Potency was active: 9.28 µM.
In the case of `O=C(CCC(=O)N1CCN(S(=O)(=O)c2ccc3ccccc3c2)CC1)Nc1cc(Cl)cc(Cl)c1`, the activity change, negative = inhibition is reported as inactive: -21.2% [at 5.75 µM].
With `N#C/C(=C/c1cn(-c2ccccc2)nc1-c1cccc(S(=O)(=O)N2CCCC2)c1)C(=O)NCc1ccco1` the Potency was active: 10.4 µM.
For `CC(=O)c1c(N2CCN(c3ccccc3)CC2)nc(=S)n(-c2ccccc2)c1C`, the Potency was inconclusive [inhibitor, single point].
For `CCCNC(=O)N1CCN(S(=O)(=O)c2ccc3c(c2)OCCO3)CC1`, the Potency was inconclusive [inhibitor, partial curve, poor fit].
With `CCCn1c(NC(=O)C2CCN(S(=O)(=O)c3cccs3)CC2)nc2ccccc21` the Potency was active: 10.4 µM.
In the case of `COc1ccccc1NC(=O)NCCCN1CCN(c2cccc(Cl)c2)CC1`, the Potency is reported as inconclusive [inhibitor, partial curve, poor fit].
In the case of `CCCN1CCN(CCCNC(=O)c2ccc3c(=O)n(CCc4ccccc4)c(=O)[nH]c3c2)CC1`, the Potency is reported as inconclusive [inhibitor, single point].
With `O=C(COc1ccccc1F)Nc1ccc(S(=O)(=O)Nc2nccs2)cc1` the “activity change, negative = inhibition” value was inactive: 3.06%.
With `COc1ccc(C2CC(c3ccccc3)=NN2c2ccccc2)c(C(=O)O)c1OC` (stereo not drawn) the “activity change, negative = inhibition” value was inactive: -17.3%.
With `Cc1c(C(=O)Nc2ccc(N3CCOCC3)cc2)oc2ccccc12` the “activity change, negative = inhibition” value was inactive: 54.6%.
For `O=C(NC1=NCCS1)c1ccc(Cl)c(S(=O)(=O)N2CCCC2)c1`, the Potency was inconclusive [inhibitor, partial curve, poor fit].
In the case of `CC(=O)Oc1ccc(N2C(=O)[C@@H]3[C@H](C2=O)[C@H]2c4ccccc4C=NN2[C@@H]3C(C)=O)cc1`, the “activity change, negative = inhibition” value is reported as inactive: 14.6%.
For `COc1cccc(-n2c([S-])c(C(=O)Nc3ccc(C(F)(F)F)cc3)[n+]3ccccc23)c1`, the Potency was inconclusive [inhibitor, single point].
With `O=C(CSc1nc2ccccc2s1)N/N=C/c1cc([N+](=O)[O-])ccc1O` the Potency was inconclusive [inhibitor, single point].
In the case of `O=C(CN1C(=O)CSc2ccc(S(=O)(=O)N3CCCCC3)cc21)NCc1ccccc1Cl`, the Potency is reported as inconclusive [inhibitor, partial curve].
In the case of `N#CC1=C(N)OC(c2ccccc2)=C(C#N)C1c1ccc2c(c1)OCO2` (stereo not drawn), the “activity change, negative = inhibition” value is reported as inactive: -13.1%.
With `COC(=O)C1=C(C)N(c2ccc(C)cc2)/C(=C/c2cccs2)C1=O` the Potency was inconclusive [inhibitor, partial curve].
With `N#CCc1ccc(NC(=O)CSc2nnc(C3CC3)n2C2CC2)cc1` the “activity change, negative = inhibition” value was inactive: -7.48%.
In the case of `Cc1onc(-c2c(F)cccc2Cl)c1C(=O)Nc1sc2c(c1C#N)CCC(C(C)(C)C)C2` (stereo not drawn), the Potency is reported as active: 6.57 µM.
In the case of `COc1ccc(NC(=O)CN2CCN(CC(=O)Nc3ccc4c(c3)OCO4)CC2)cc1`, the Potency is reported as inconclusive [inhibitor, single point].
For `CC(=O)OC(COc1ccccc1)Cn1cnc2cc(C)c(C)cc21` (stereo not drawn), the Potency was inconclusive [inhibitor, partial curve, poor fit].
In the case of `COc1ccc(OCc2cc(C(=O)N3CCCCCC3)no2)c(Cl)c1`, the “activity change, negative = inhibition” value is reported as inactive: 33.2%.
With `COc1ccc(NC(=O)/C(C#N)=C/c2cc(C)n(-c3ccc(N4CCOCC4)c([N+](=O)[O-])c3)c2C)cc1` the Potency was inconclusive [inhibitor, single point].
In the case of `CC(C)c1nc(N2CCOCC2)c(C#N)c2c1COC(C)(C)C2`, the Potency is reported as inconclusive [inhibitor, single point].
For `Cc1nn(Cc2ccccc2Cl)c(C)c1C(=O)NCC(c1cccs1)N1CCOCC1` (stereo not drawn), the Potency was inconclusive [inhibitor, single point].
For `COC(=O)c1nnn(-c2nonc2N)c1CSc1nc2ccccc2s1`, the “activity change, negative = inhibition” value was inactive: 11.2%.
For `O=C(CNC(=S)N(Cc1ccccc1F)C1CCCCC1)NCC1CCCO1` (stereo not drawn), the Potency was inconclusive [inhibitor, single point].
With `COc1ccc(CC(=O)Oc2ccc(F)cc2)cc1` the “activity change, negative = inhibition” value was inactive: 10.2%.
With `Cc1ccc(C)c(C(C)NC(=O)C2CCCO2)c1` (stereo not drawn) the “activity change, negative = inhibition” value was inactive: -1.62%.
With `CCOC(=O)c1cc2nc(-c3ccccc3)cc(C)n2n1` the “activity change, negative = inhibition” value was inactive: 5.02%.
In the case of `O=C(NCCN1CCCCCC1)c1ccc(CS(=O)(=O)c2ccc(Br)cc2)o1`, the Potency is reported as inconclusive [inhibitor, partial curve].
With `COc1ccc(C2c3[nH]c4ccccc4c3CCN2Cc2cccn2-c2ncccn2)cc1C` (stereo not drawn) the Potency was inconclusive [inhibitor, partial curve].
In the case of `O=C(CSc1ncn[nH]1)c1ccc2c(c1)OCO2`, the “activity change, negative = inhibition” value is reported as inactive: 28.7%.
With `Cc1ccc(CNC(=O)c2ccc(N3CCC4(CC3)CC(c3ccccc3)=NO4)c(NC(=O)c3ccc(Br)cc3)c2)cc1` the Potency was inconclusive [inhibitor, full curve, poor fit].
In the case of `COc1ccc(N2CCCn3c2nc2c3c(=O)n(Cc3ccc(F)cc3)c(=O)n2C)c(OC)c1`, the Potency is reported as inconclusive [inhibitor, full curve].
For `COc1ccc(C2NC(c3ccc(OC)cc3)C([N+](=O)[O-])C(C)(C)C2[N+](=O)[O-])cc1` (stereo not drawn), the Potency was inconclusive [inhibitor, partial curve, poor fit].
In the case of `Cc1ccnc(N2CCCC(C(=O)Nc3ccc(C)c(C)c3)C2)n1` (stereo not drawn), the Potency is reported as inconclusive [inhibitor, single point].
For `CCn1c(Cc2cccn2C)nnc1SCC(=O)c1ccc(C)cc1`, the Potency was active: 13.1 µM.
For `Cc1ccccc1Nc1nnc(SCC(=O)c2c(N)n(C3CC3)c(=O)[nH]c2=O)s1`, the Potency was inconclusive [inhibitor, single point].
With `O=C(CSc1nccc(=O)[nH]1)N1c2ccccc2CCc2ccccc21` the Potency was inconclusive [inhibitor, single point].
For `COc1cc(CNn2nnnc2N)cc(Br)c1OCC(=O)NC(C)(C)C`, the Potency was inconclusive [inhibitor, partial curve, poor fit].
With `COc1ccc(C=C(c2nc3ccccc3s2)c2nc3ccccc3s2)cc1O` the Potency was inconclusive [inhibitor, single point].
In the case of `COc1cccc(/C=N/N2C(=O)C3C4c5ccccc5C(c5ccccc54)C3C2=O)c1OC` (stereo not drawn), the “activity change, negative = inhibition” value is reported as inactive: -4.27%.
With `COc1ccc(-c2nn(-c3ccccc3C)cc2CNCc2cccnc2)cc1F` the Potency was inconclusive [inhibitor, single point].
With `C[C@@H]1C=CC(=O)O[C@@H]1c1ccc(Cl)cc1` the Potency was inconclusive [inhibitor, partial curve].
With `c1ccc(Cn2nnc3c(Nc4ccc5c(c4)OCO5)nc(C4CC4)nc32)cc1` the Potency was inconclusive [inhibitor, single point].
For `CC(NCC(=O)Nc1cc(S(=O)(=O)N2CCOCC2)ccc1Cl)c1ccc(Cl)cc1Cl` (stereo not drawn), the Potency was inconclusive [inhibitor, single point].
With `COC(=O)C1=C(c2ccc(C(C)=O)cc2)C[C@@H]2CC[C@H]1N2C(=O)N1CCC(C)CC1` the Potency was active: 13.1 µM.
With `CCCCn1c(N)c(N(CCC(C)C)C(=O)CSc2nnc(Nc3ccccc3)s2)c(=O)[nH]c1=O` the Potency was inconclusive [inhibitor, full curve, poor fit].
With `O=C1CCCN1CCC1CCCCN1Cc1nc(-c2cnccn2)no1` (stereo not drawn) the “activity change, negative = inhibition” value was inactive: 6.56%.
With `COc1cccc(CN(C)CC(O)COC(c2ccccc2)c2ccccc2C)c1` (stereo not drawn) the Potency was active: 8.28 µM.
For `COc1ccccc1N1CCN(/N=C/c2c(C)nn(-c3ccccc3)c2C)CC1`, the Potency was inconclusive [inhibitor, single point].
For `COc1cccc(C2C(C#N)=C(N)N(c3ncn[nH]3)C3=C2C(=O)CCC3)c1` (stereo not drawn), the “activity change, negative = inhibition” value was inactive: -9.18%.
With `Cn1c(SCc2ccccc2Cl)nc2c1c(=O)[nH]c(=O)n2C` the Potency was inconclusive [inhibitor, single point].
For `COc1cc(Nc2c3ccccc3nc3ccccc23)cc(OC)c1OC`, the Potency was active: 7.38 µM.
With `O=C(CCN1CCN(c2ccccc2)CC1)N/N=C/c1ccccc1O` the Potency was inconclusive [inhibitor, partial curve, poor fit].
In the case of `O=C(CCN1C(=O)C2C3CCC(C3)C2C1=O)Nc1ccc([N+](=O)[O-])cc1` (stereo not drawn), the “activity change, negative = inhibition” value is reported as inactive: -14.7%.
With `CCCCCNC(=O)Cn1c(=O)c2c(ncn2CC(C)C)n(Cc2ccccc2)c1=O` the Potency was inconclusive [inhibitor, single point].
